Data: the supplement of paper PMC3334620
The full ranking holds about 33,000 sequences; the median of “E-score (-0.5 to 0.5)” is about -0.035, and the highest 2% start at about 0.35. The list shows a part of the results.

target: T1, Pdr3 (UniProt P33200); test: PBM E-score (8-mer binding enrichment) (E-score (-0.5 to 0.5)); higher = stronger / more preferred TF binding; most listed sequences are background and not binding sites; details: protein concentration: 200 nM; construct: GST-full length
T1 sequence: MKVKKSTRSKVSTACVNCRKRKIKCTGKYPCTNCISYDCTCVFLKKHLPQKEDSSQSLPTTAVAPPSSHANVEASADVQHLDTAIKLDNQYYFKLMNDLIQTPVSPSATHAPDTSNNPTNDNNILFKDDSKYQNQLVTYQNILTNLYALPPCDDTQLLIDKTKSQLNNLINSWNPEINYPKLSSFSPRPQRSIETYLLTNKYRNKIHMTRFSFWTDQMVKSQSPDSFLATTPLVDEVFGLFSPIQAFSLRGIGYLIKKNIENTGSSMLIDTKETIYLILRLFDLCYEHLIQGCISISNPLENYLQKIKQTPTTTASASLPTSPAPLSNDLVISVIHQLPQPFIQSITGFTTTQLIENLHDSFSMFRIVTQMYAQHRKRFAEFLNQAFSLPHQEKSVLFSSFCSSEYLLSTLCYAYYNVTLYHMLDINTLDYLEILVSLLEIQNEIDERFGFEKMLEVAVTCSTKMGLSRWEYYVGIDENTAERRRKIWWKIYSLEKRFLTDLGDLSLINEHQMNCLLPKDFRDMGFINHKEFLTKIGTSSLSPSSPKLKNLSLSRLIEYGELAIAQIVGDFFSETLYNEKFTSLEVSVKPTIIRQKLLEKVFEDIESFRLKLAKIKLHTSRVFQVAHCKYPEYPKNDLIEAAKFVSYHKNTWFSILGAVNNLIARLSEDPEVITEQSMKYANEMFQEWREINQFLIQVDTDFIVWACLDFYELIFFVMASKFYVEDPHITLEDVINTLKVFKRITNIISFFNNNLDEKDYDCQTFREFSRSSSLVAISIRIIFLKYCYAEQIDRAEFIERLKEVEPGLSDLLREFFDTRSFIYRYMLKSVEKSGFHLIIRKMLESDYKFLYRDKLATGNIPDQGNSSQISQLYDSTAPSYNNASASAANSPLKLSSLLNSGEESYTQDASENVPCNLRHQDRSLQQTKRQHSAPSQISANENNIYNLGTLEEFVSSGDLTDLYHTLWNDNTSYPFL
Outline: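 Universal all-10-mer Agilent arrays, double-stranded by primer extension on fresh or once-stripped slides, were probed with about 100-200 nM GST-tagged yeast transcription factors made by PURExpress. Fluorescent anti-GST detected bound protein, and masliner normalised the scans. E-scores from the Universal PBM Analysis Suite were given to each ungapped eight-base word pooled with its reverse complement.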

Row | Sequence | PBM E-score
1 | CGGGAACG | 0.285
2 | ACCCCGAG | 0.0107
3 | AACGCCTA | -0.132
4 | ACACACTC | 0.0875
5 | CATGAATA | -0.313
6 | CAGGCAAA | 0.00637
7 | GCGCTAAC | -0.104
8 | CCTGGACC | -0.117
9 | ATCGGAAC | 0.469
10 | ACCCCACG | -0.0103
11 | GTGGGCAA | -0.22
12 | AAGTCGCC | -0.0545
13 | CTAACTAA | -0.136
14 | AGCCTGAA | -0.0826
15 | ATGCTCGC | -0.113
16 | AACTTGGC | -0.014
17 | ACGTCTAC | -0.235
18 | CCAGAGCG | -0.109
19 | AAATCCCC | 0.0279
20 | CGCGCACA | 0.0847
21 | AAAATGTC | -0.0052
22 | AGCTCTGG | -0.168
23 | AAAATTGC | -0.0268
24 | CATCGAGA | -0.1
25 | CAATGGTG | -0.168

Row | Sequence | PBM E-score
26 | ATGGTTCC | 0.371
27 | GTGGGAGA | -0.217
28 | CGACCGAG | 0.124
29 | CAACTTGC | -0.171
30 | CCACCTAA | -0.163
31 | AGACCGCT | -0.111
32 | CTCAGAAG | -0.174
33 | ACGGGTGG | 0.323
34 | CATAACAA | 0.104
35 | ATGCTAAC | -0.00545
36 | ACTCCGAC | 0.255
37 | AACCGCCA | -0.0357
38 | CCAGTCAC | -0.0677
39 | CTGCGGCA | 0.0359
40 | CGTTACCC | 0.0536
41 | CAACCCGG | 0.293
42 | TGATCAAA | -0.141
43 | ATAGTAAA | 0.039
44 | GAAATAGC | 0.0225
45 | CCGTCGGC | 0.285
46 | GACGTACA | -0.138
47 | GTTTCAGA | -0.0598
48 | ACCCAAGA | -0.0781
49 | AGCGAGCC | 0.0476
50 | AGAGAGTC | -0.249

Row | Sequence | PBM E-score
51 | CTCTACCC | -0.176
52 | ACGGGGCC | 0.166
53 | CTTTAAGC | -0.165
54 | CTCGATCC | 0.153
55 | AATACTAG | 0.023
56 | CGACCAAC | 0.0392
57 | AAGATCTC | -0.134
58 | GGGAACAC | 0.183
59 | GATGGAGA | 0.0098
60 | CCTCCCTA | -0.228
61 | CTCAGCTC | 0.0376
62 | ATGACAGC | -0.202
63 | GAGGAAGC | -0.0425
64 | GGTGGTAC | -0.0698
65 | TATTTCGA | 0.0154
66 | AACCAACG | -0.0168
67 | ACCCATGC | -0.0401
68 | TCATCAGA | -0.127
69 | AGACACCG | 0.0281
70 | AACGGAGC | 0.275
71 | GGCTGCCA | -0.0823
72 | CCCCGTAC | -0.184
73 | ACTCCCGG | 0.356
74 | CAGATGTC | -0.0141
75 | CACACGTC | -0.157

Row | Sequence | PBM E-score
76 | AAGTCACT | -0.0519
77 | ACCGCCGA | 0.103
78 | CTTACAAA | -0.0864
79 | CATCTTCG | 0.0347
80 | GTCACTGA | -0.0588
81 | ATTCTGAG | -0.156
82 | TATTGTCA | -0.0212
83 | ATTTCACA | 0.0307
84 | ACATGCCT | -0.129
85 | GGCAACAA | -0.0279
86 | AGAGATTC | 0.103
87 | AATTCCGA | 0.423
88 | AGATCTGG | -0.154
89 | GACAATGC | -0.0041
90 | GAGATCCA | 0.112
91 | CGCGATCC | 0.137
92 | ACACGAAA | 0.063
93 | ACGGTGCG | 0.145
94 | GTCAATTA | -0.0543
95 | TAGTTATA | -0.0743
96 | AGTAGCAA | 0.1
97 | CAAAACCC | 0.195
98 | CGCGCCAC | 0.0494
99 | AGACCCAA | -0.0539
100 | CCAGCGTC | -0.0164

Row | Sequence | PBM E-score
101 | CACTCATC | -0.0423
102 | AGCAGCGC | -0.0233
103 | GGTGAGTA | -0.133
104 | AAACAAGA | 0.0402
105 | AGGACTTC | -0.0813
106 | GTGGAAAA | -0.109
107 | GTGCGAAA | -0.0529
108 | AGACCACG | -0.235
109 | CGAGCCGC | 0.3
110 | ATCCTAAC | -0.121
111 | AGGTAAGG | -0.247
112 | ACAAATGA | -0.197
113 | AGACTACT | -0.173
114 | GGACGCCA | 0.0768
115 | GCCGACCA | 0.0918
116 | CATAGGGG | -0.0816
117 | CGCGTGAA | 0.189
118 | ATGGTCAG | -0.0886
119 | GAACTGGA | 0.185
120 | TATGAAAA | 0.0697
121 | AGGATTAA | -0.0781
122 | GATAGGCA | -0.202
123 | CAAACTCC | 0.138
124 | TGAGCTAA | -0.15
125 | AGAGACAA | -0.226

Row | Sequence | PBM E-score
126 | AACATGGT | -0.187
127 | GGAGCTAA | -0.0167
128 | ATGCTTAG | -0.25
129 | AAGAAGCT | -0.125
130 | TACCGAAA | 0.0817
131 | TACACAGA | -0.203
132 | CCTTACAC | -0.203
133 | AACAAGCG | 0.0731
134 | GACCATTA | -0.0786
135 | ACTTACAC | -0.212
136 | AGCGCCTG | 0.0403
137 | CAATGTCG | -0.00468
138 | AATGAGTC | -0.0271
139 | CTTAGCGA | 0.0213
140 | GCGTTGCC | 0.126
141 | AAGCTCGG | 0.29
142 | ATTGTTCC | 0.378
143 | AGGCGGAG | 0.174
144 | AGTCGGCA | 0.0345
145 | GCGCAGCC | 0.0679
146 | AGAGATTG | -0.0672
147 | AGAGCTGA | -0.15
148 | GCGGCAAA | 0.184
149 | AATCCCCC | -0.0842
150 | ATGTAATC | -0.0757

Row | Sequence | PBM E-score
151 | AATCGCTG | 0.115
152 | CGAATGTA | -0.0733
153 | CAGCAAGA | -0.0529
154 | CGCCATTA | 0.113
155 | CTGCAAAC | -0.0558
156 | AATGAAGC | -0.0906
157 | CCCTGTCC | -0.132
158 | GACTTGAC | -0.0897
159 | CCGTCTTA | -0.122
160 | ACCGCTTA | -0.221
161 | CTCCTAAA | -0.359
162 | CAATATTA | -0.0363
163 | TAGGAAAA | -0.159
164 | CAGTTGCA | -0.171
165 | CATGTTAC | -0.101
166 | GTAGCAAA | 0.00758
167 | ATAGCTGA | -0.0602
168 | GATTTCCA | 0.116
169 | AAACCAGG | -0.0534
170 | ACCCTCAC | -0.0979
171 | GGAAGATA | 0.234
172 | CGCACCTC | 0.044
